About 2,200 (0.71%) of roughly 310,000 compounds showed an effect of 50% or more. The effect is printed as a negative number. Some of the results follow.
These molecules were tested against human ether-à-go-go-related gene (hERG) potassium channel (human, UniProt Q12809) (assay: primary screen, population patch clamp on CHO cells stably expressing hERG).
human ether-à-go-go-related gene (hERG) potassium channel, sequence (Q12809 whole entry, looked up): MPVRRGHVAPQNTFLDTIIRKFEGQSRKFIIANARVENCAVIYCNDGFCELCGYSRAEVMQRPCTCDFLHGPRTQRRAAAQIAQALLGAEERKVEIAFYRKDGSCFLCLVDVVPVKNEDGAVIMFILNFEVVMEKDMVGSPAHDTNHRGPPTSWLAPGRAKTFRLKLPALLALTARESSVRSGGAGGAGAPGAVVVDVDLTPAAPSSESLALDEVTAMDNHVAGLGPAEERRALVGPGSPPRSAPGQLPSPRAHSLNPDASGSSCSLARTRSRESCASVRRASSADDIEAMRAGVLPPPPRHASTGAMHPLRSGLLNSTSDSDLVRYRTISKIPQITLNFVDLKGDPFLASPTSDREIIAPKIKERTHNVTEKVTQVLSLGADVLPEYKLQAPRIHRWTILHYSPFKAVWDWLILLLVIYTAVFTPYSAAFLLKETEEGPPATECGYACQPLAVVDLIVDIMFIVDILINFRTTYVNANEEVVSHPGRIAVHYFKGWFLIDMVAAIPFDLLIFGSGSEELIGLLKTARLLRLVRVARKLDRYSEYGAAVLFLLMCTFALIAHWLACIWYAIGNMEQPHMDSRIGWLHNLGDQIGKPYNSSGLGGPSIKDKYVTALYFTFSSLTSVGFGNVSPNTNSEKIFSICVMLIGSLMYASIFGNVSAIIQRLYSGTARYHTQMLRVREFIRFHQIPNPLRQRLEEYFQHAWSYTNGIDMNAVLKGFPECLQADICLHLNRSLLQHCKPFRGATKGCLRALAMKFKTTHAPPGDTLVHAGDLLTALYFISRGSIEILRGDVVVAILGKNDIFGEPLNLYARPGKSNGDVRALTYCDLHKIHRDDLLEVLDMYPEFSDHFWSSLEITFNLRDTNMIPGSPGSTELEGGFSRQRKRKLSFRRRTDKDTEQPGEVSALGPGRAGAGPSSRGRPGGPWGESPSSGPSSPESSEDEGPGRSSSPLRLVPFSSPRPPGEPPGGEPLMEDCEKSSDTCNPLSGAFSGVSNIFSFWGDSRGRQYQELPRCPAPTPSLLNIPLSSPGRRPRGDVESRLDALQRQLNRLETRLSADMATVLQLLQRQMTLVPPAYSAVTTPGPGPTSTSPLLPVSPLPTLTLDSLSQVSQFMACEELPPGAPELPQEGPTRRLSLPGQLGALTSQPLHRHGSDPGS

SMILES | hERG current change (%, negative = inhibition) at 1uM [%]
COc1ccc(C2=CC(=O)C[C@H](c3ccc(F)cc3)C2)c(F)c1F | 8.81
CSC1=NCCN1C(=O)c1cccs1 | 12.1
Cc1cc(NC(=O)COC(=O)CNS(=O)(=O)c2ccc(C)c(C)c2)no1 | 10.4
COc1ccc(-c2nnn(Cc3ccccc3F)n2)cc1 | 20
CCn1nc(NS(=O)(=O)c2ccccc2[N+](=O)[O-])c2cc3ccc(C)cc3nc21 | 12.2
O=C(NCCc1cccs1)C1CC(c2cccc(F)c2)=NO1 (centres unmarked) | 9.94
CN1C(=O)C(C2c3ccccc3C(=O)N2Cc2ccc([N+](=O)[O-])cc2)C(=O)N(C)C1=O (centres unmarked) | -3.66
COc1ccc(NC(=O)C2CC(c3ccccc3Cl)=NO2)cc1 (centres unmarked) | 16.6
Oc1ccccc1/C=N/c1c(-c2ccco2)nc2ccccn12 | 6.02
Cc1ccc(NC(=S)N2CCCC2)cc1Cl | 10.9
CCC(=O)N=c1sc2cc(F)cc(F)c2n1C | 9.86
CCCCn1c(=O)c(C(=O)Nc2ccc(C)cn2)c(O)c2ccccc21 | 15.1
C=CCn1c(SCC(=O)NC2CCS(=O)(=O)C2)nc2sc(CC)cc2c1=O (centres unmarked) | -15.6
Cn1cc([N+](=O)[O-])c(C(=O)NNC(=O)c2ccc([N+](=O)[O-])cc2Cl)n1 | 11.1
O=C(Nc1ccncc1)c1cccn(Cc2ccccc2)c1=O | -16.2
Cc1nc2c3ccccc3n(CC(=O)c3ccc(F)cc3)c(=O)n2n1 | 5.17
COc1ccc([N+](=O)[O-])cc1NC(=S)NC(C)=O | 5.45
CCc1ccc(NC(=O)c2cnc3scc(C)n3c2=O)cc1 | 4.58
CCCCCCC1NC(C(=O)O)CS1 (centres unmarked) | -9.13
O=C(Nc1nc2ccccc2n1CCOc1ccc(Cl)cc1)c1ccco1 | 1.49

SMILES | hERG current change (%, negative = inhibition) at 1uM [%]
CCn1c(CN2C(=O)CSc3ccccc32)n[nH]c1=S | 10.7
CC(NC(=O)NNC(N)=S)(C(F)(F)F)C(F)(F)F | 5.83
Cl.OC(c1ccccc1)(C1CCCCC1)C(CN1CCOCC1)c1ccccc1 (centres unmarked) | 6.38
C1CCC2S[C@H]3CCCCC3NC2C1 (some centres unmarked) | 8.84
Fc1ccc(C2=Nn3c(nnc3-c3n[nH]c4c3CCC4)SC2)cc1 | 6.32
O=C(COc1ccc([N+](=O)[O-])cc1)NCc1cccnc1 | 2.13
CCOCCn1c(=NC(=O)/C=C/c2ccccc2Cl)sc2cc(NC(C)=O)ccc21 | 4.91
O=C(NCc1ccco1)c1ccc2c(=O)n(-c3ccccc3)c(=O)n(Cc3cccc(F)c3)c2c1 | 3.64
COc1cc(NC(=S)NC(C)=O)ccc1NC(=O)C(C)C | 3.5
COc1ccc([N+](=O)[O-])cc1C(=O)C(=O)c1ccccc1 | 10.6
CC(C)N(Cc1nc2ccccc2[nH]1)C(C)C | 11.6
CC(C)(C)C(C(=O)O)N1CCS(=O)(=O)CC1 (centres unmarked) | 13.4
CCCC(=O)Nc1ccc(C(=O)N/N=C/c2cccnc2)cc1 | 3.39
CCOC(=O)Cc1csc(NC(=O)NC2(C(F)(F)F)Oc3ccccc3O2)n1 | 5.01
COc1ccc(/C=N/NC(=O)c2ccc(N(C)S(=O)(=O)c3ccccc3)cc2)c(OC)c1 | 4.6
C#CC[N+](C)(C)CC#Cc1ccc(Cl)cc1.[Br-] | 7.44
O=C(NNC(=O)c1cccs1)c1ccncc1 | 16
CCOc1ccccc1NC(=O)CCc1ccc(C)o1 | 4.34
CS(=O)(=O)c1ccc2nc(NC(=O)CCC(=O)c3cccs3)sc2c1 | 3.84
CCOc1ccc(-n2c(-c3ccccc3)c[nH]c2=S)cc1 | 16.6

SMILES | hERG current change (%, negative = inhibition) at 1uM [%]
CCOC(=O)c1cnc(Nc2nc3ccccc3o2)nc1CSC(=S)N(CC)CC | 13.8
Cc1cc(C)n(-c2cc(C(C)(C)C)nc3c(-c4ccccc4)cnn23)n1 | 14.4
O=C(CSc1nc(-c2ccccc2Cl)ns1)Nc1ccc2c(c1)OCO2 | 8.94
CCOC(=O)C1(Cc2ccccc2C)CCCN(C(=O)CCC(=O)OC)C1 (centres unmarked) | 7.66
CCOCCCNC(=O)C(NC(=O)Cc1cccs1)c1ccc(C)cc1 (centres unmarked) | 9.42
O=C1/C(=C\c2ccccn2)SC(=S)N1c1ccc(S(=O)(=O)Nc2nccs2)cc1 | 7.42
N/C(=N\OC(=O)c1ccc(Br)cc1)c1ccccc1 | -2.65
CCC(C)(C)NC(=O)CN(C(=O)C(=O)Nc1ccc2c(c1)OCCO2)C1CC1 | 12.1
CS/C(=C\C(=O)c1ccco1)Nc1ccccc1Cl | 9.56
O=C(NNC(=S)NC(=O)c1cccnc1)c1ccccc1 | 6.23
CCc1cc(-c2n[nH]c(C)c2-c2nc3ccccc3n2C)c(O)cc1O | 9.86
CSc1nc(N)nc(-c2cccs2)c1C#N | -16.9
COc1cccc(COc2ncnc3sccc23)c1 | -7.63
Cn1c(CC(=O)Nc2ccccc2F)nnc1SCC(=O)Nc1nncs1 | 12.9
Cc1ccc(C(=O)NN2C(=O)C3C4c5ccccc5C(c5ccccc54)[C@@H]3C2=O)cc1 (some centres unmarked) | 17.5
Cc1ccc(S(=O)(=O)NCC(c2ccc3c(c2)OCO3)N2CCN(c3ccccc3)CC2)cc1 (centres unmarked) | 13.5
O=[N+]([O-])c1ccc(S(=O)(=O)N2CCSC2c2ccco2)cc1 (centres unmarked) | 8.66
O=S(=O)(NCCSCc1ccc(Cl)cc1Cl)c1ccc2c(c1)OCCO2 | 7.68
CCc1ccc(NC(=O)CS(=O)CC(=O)NCC2OCCc3ccccc32)cc1 (centres unmarked) | -0.968

Reference: PMC4336329 (PLoS ONE, 2015)
